Assay results reported in PubChem BioAssay AID588855 (National Center for Advancing Translational Sciences (NCATS), 2011).
Values joined by “and” are separate entries in the source; they are usually repeats but may differ in a detail not shown here. Equal values may be shown once. The whole screen tested about 410,000 compounds, of which about 5,000 (1.2%) were called active. The shares of active, inactive and inconclusive entries below differ from those in the screen. The call rests on the fitted dose curve; in most records, active means well fitted inhibition curve with a large enough effect; inconclusive means small, poorly fitted or top-dose-only effect; inactive means no such curve, though single readings can be large or run the other way. Where the call is inconclusive, the potency comes from a doubtful curve fit.

Assay: qHTS for Inhibitors of TGF-b; further: nearly all actives have a fitted effect of over 65% in size
Conditions: HepG2 CAGA-GFP TGF-b/SMAD3 reporter, GFP fluorescence, 18 h, TGF-beta stimulated, 500 pg/mL final; series mostly up to 46.1 µM; activity, negative = inhibition: at the top concentration
Text: TGF-b is a main component in the TGF-b signaling pathway which plays diverse roles in cellular and development pathways. TGF-b is the mediated by the transcription factors Smads. Although the Smad-dependent pathway is the primary canonical TGF-b signaling node, TGF-b1 can also activate alternative signaling pathways, including those involving MAPK (ERK, JNK and p38). This interaction may mediate or enhance Smad-dependent responses, or can exert Smad-independent effects. The complexity of this signaling cascade allows the TGF-b superfamily to perform unique, overlapping or redundant functions. We believe that targeting the TGF-beta pathway at the Smad-transcription factor level may eliminate the consequences of disrupting the entire pathway and offer specificity without affecting other signaling pathways. Smad3 is the primary transducer of TGF-b's signals and Smad3 regulates many functions attributed to TGF-b signaling. We hypothesize that Smad3 inhibitors will selectively eliminate Smad3-specific TGF-beta signals without undesired off-target effects. We aim to identify Smad3-small molecule antagonists using a quantitative high throughput screening (qHTS) approach.
A high-throughput assay was developed to screen the NIH Molecular Libraries Small Molecule Repository (MLSMR). This is a cell based assay, where TGF-b is tagged with GFP. A counterscreen is run that looks at cytotoxicity (please see summary AID).
MH087449NIH Chemical Genomics Center [NCGC]
NIH Molecular Libraries Probe Centers Network [MLPCN]
Assay Submitter (PI): Sushil Rane, National Institute of […]
Suspensions of trypsinized HEPG2 CAGA-GFP cells were dispensed into white, tissue culture-treated, solid 1536-well plates at 5uL/well (1000 cells/well final concentration) in DMEM medium supplemented with 1% FBS. Plates were incubated at 37 degrees C for 2 hours, after which 23 nL of compounds or DMSO were delivered to each well using a pin tool. One uL of recombinant TGF-beta in DMEM (1% FBS) was then dispensed (500 pg/mL final concentration), and plates were incubated at 37 degrees C for 18 hours. The plates were measured on an Acumen eX3 Explorer plate reader for GFP fluorescence (ex488/em500-530). GFP values were calculated by determining the mean GFP fluorescence of individual cells, and compiling these values for each well to determine a total well GFP signal. The %Activity was determined from the corrected fluorescence values. A titration of the known TGF-B inhibitor SB431542 was included to monitor plate performance, while unstimulated HEPG2 (-TGF-B) control wells were used to normalize %Activity of identified inhibitors; unstimulated wells corresponded to 100%Activity (full inhibition), while stimulated cell controls (+DMSO) were used to normalize 0%Activity (no inhibition).
Concentration-response curves were fitted to the signals arising from the resulting fluorescence. The concentration-effect curves were then classified based on curve quality (r2), response magnitude and degree of measured activity, and compounds were subsequently categorized based on their curve class.
Potency means the concentration at half of the fitted maximal effect; tags describe the fitted curve by direction and shape.

Row | SMILES | Potency | activity, negative = inhibition
1 | COc1ccc(C(=O)c2cn(Cc3ccccc3)c3ccccc3c2=O)cc1OC | inconclusive: 28.2 µM [inhibitor, single point] | 
2 | CN1C(C(=O)Nc2cccc(O)c2)=CC(c2cccs2)=NS1(=O)=O | inconclusive: 35.5 µM [inhibitor, partial curve, poor fit] | 
3 | COc1ccc(NC(C)=O)cc1S(=O)(=O)NC(Cc1ccccc1)C(=O)NC(C)c1ccccn1 (configuration not stated) | inconclusive: 35.5 µM [inhibitor, single point] | 
4 | COc1c2c(cc3oc(=O)c4c5ccc(O)cc5oc4c13)OC(C)(C)CC2 |  | inactive: 17.9%
5 | CCCCCc1cc(=O)oc2c(C(CCN(CC)CC)c3ccc(OC)cc3)c(OC)cc(OC)c12 (configuration not stated) | inconclusive: 35.5 µM [inhibitor, single point] | 
6 | O=C(NCCc1nc2ccccc2n1Cc1ccccc1F)c1ccc(F)cc1 |  | inactive: 0.0323%
7 | Cc1c(C(=O)N(Cc2ccc(Cl)cc2)C2CCS(=O)(=O)C2)oc2ccccc12 (configuration not stated) | inconclusive: 17.8 µM [inhibitor, single point] | 
8 | Cc1ccc(NC(=O)CCc2nnc3ccc(N4CCC(C)CC4)nn23)nc1 |  | inactive: 0.267%
9 | CCCOc1ccc2c(=O)c(-c3cc(C(=O)OC)oc3C)c(C)oc2c1 | inconclusive: 35.5 µM [inhibitor, single point] | 
10 | O=C(COC(=O)c1ccc2ncsc2c1)NC(=O)C1CCCCC1 |  | inactive: -4.01%
11 | COC(=O)N/N=C/c1cn(Cc2ccc(F)cc2)c2ccccc12 | active: 5.01 µM | 
12 | Nc1ncc(S(=O)(=O)NCc2ccccc2)cn1 |  | inactive: 3.69%
13 | CCOCC(O)CNc1ccccc1 (configuration not stated) |  | inactive: 3.61%
14 | COc1cc(S(=O)(=O)NCCc2c(C)[nH]c3ccc(C)cc23)ccc1Br | inconclusive: 35.5 µM [inhibitor, single point] | 
15 | O=C(Nc1cc(-c2ccccc2)nn1C1CCCCC1)c1ccc(Cl)cc1 | inconclusive: 35.5 µM [inhibitor, single point] | 
16 | Cc1ccc(OC(C)C(=O)Nc2ccncc2)cc1C (configuration not stated) | active: 10 µM | 
17 | CCCCNCCS(=O)(=O)NCc1ccc(OC)cc1 |  | inactive: -5.19%
18 | Cc1onc(-c2ccccc2Cl)c1C(=O)N/N=C(\N)COc1ccc(Cl)cc1 | inconclusive: 35.5 µM [inhibitor, single point] | 
19 | C/C(=N\Nc1ccc([N+](=O)[O-])cc1)c1ccc(-n2nncc2C)cc1 | inconclusive: 0.562 µM [inhibitor, full curve, poor fit] | 
20 | COc1ccc(Nc2nc(-c3ccccc3)nc3ccccc23)cc1S(=O)(=O)N1CCOCC1 | inconclusive: 11.2 µM [inhibitor, partial curve, poor fit] | 
21 | COc1ccc(NS(=O)(=O)c2ccc(N3CCOCC3)c(N)c2)cc1 |  | inactive: -5.39%

Row | SMILES | Potency | activity, negative = inhibition
22 | CCOc1ccccc1NC(=O)COC(=O)CC(C)(C)CC1=NS(=O)(=O)c2ccccc2N1 | inconclusive: 20 µM [inhibitor, partial curve, poor fit] and inconclusive: 22.4 µM [inhibitor, single point] | 
23 | Cc1onc(-c2ccccc2Cl)c1C(=O)Oc1ccc(Cl)cc1Cl | inconclusive: 5.01 µM [inhibitor, full curve, poor fit] | 
24 | O=C(O)c1cccc(S(=O)(=O)Nc2ccc3c(c2)CCC3)c1 |  | inactive: -3.09%
25 | NS(=O)(=O)c1ccc(NC(=S)NCc2cccs2)cc1 |  | inactive: -4.18%
26 | CC(C)CN(C(=O)/C=C/c1nc2ccccc2s1)C1CCS(=O)(=O)C1 (configuration not stated) |  | inactive: 7.08%
27 | CCOCc1cc(CN2CCN(c3cccc(C(F)(F)F)c3)CC2)c(O)c2ncccc12 | active: 2.82 µM | 
28 | CC(CCc1ccccc1)NC(=O)CNC(=O)N1CC(=O)Nc2ccccc21 (configuration not stated) | inconclusive: 28.2 µM [inhibitor, partial curve, poor fit] | 
29 | COc1cccc(-n2c(SCc3cccc(C)c3)nc3c([nH]c4ccccc43)c2=O)c1 | inconclusive: 15.8 µM [inhibitor, single point] | 
30 | COc1cc(N=Cc2c(O)[nH]c3ccccc23)cc(OC)c1OC | inconclusive: 0.708 µM [inhibitor, full curve, poor fit] | 
31 | O=C(OCCN1CCCCC1)c1ccccc1Cl | inconclusive: 3.98 µM [inhibitor, single point] | 
32 | O=C1C(O)=CC(=C(c2ccccc2)c2ccccc2)c2ccccc21 | inconclusive: 35.5 µM [inhibitor, single point] | 
33 | COc1ccc(OC)c(S(=O)(=O)Nc2ccc(O)c3ccccc23)c1 | inconclusive: 31.6 µM [inhibitor, single point] | 
34 | CCOC(=O)[C@@H]1[C@H]2COc3ccccc3[C@H]2N2C(=O)N(c3ccc(F)cc3)C(=O)[C@]12C |  | inactive: -5.83%
35 | Cc1ccc(S(=O)(=O)Oc2ccccc2/C=N/NC(=O)c2nn(C)cc2[N+](=O)[O-])cc1 | inconclusive: 35.5 µM [inhibitor, single point] | 
36 | CC(Oc1cccc(Cl)c1)C(=O)Nc1nc(-c2ccccn2)cs1 (configuration not stated) | inconclusive: 10 µM [inhibitor, partial curve, poor fit] | 
37 | O=C(N/N=C/c1cc(Br)cc(Cl)c1O)c1ccc2c(c1)OCO2 | inconclusive: 2 µM [inhibitor, partial curve, poor fit] | 
38 | O=C(C1CCC1)N1CCCc2cc(S(=O)(=O)N3CCN(c4cccc(Cl)c4)CC3)ccc21 | inconclusive: 2.24 µM [inhibitor, partial curve] | 
39 | CC(=O)c1ccc(NC(=O)c2ccc([N+](=O)[O-])o2)cc1 | active: 12.6 µM | 
40 | Cc1cccc(/C=C/C(=O)c2ccc(NC3=NCCCS3)cc2)c1 | inconclusive: 12.6 µM [inhibitor, partial curve, poor fit] | 
41 | CSc1cccc(NC(=S)NC(=O)CCc2ccccc2)c1 | inconclusive: 25.1 µM [inhibitor, single point] | 
42 | CC1(C)CC[C@]2(C(=O)O)CC[C@]3(C)C(=CC[C@@H]4[C@@]5(C)CC[C@H](O[C@@H]6O[C@H](C(=O)O)[C@@H](O)[C@H](O[C@@H]7OC[C@H](O)[C@H](O)[C@H]7O)[C@H]6O)C(C)(C)[C@@H]5CC[C@]43C)[C@@H]2C1 | active: 3.16 µM | 
